This sample is rich in variants without activity.
B1: tRNA (parent)
chain: CUCUCGGUAGCCAAGUUGGUUUAAGGCGCAAGACUUUAAUUUAUCACUACGAAAUCUUGAGAUCGGGCGUUCGACUCGCCCCCGGGAGAUUUUUUCCUCGAGCAA

Variants of: B1
Experiment: nonsense suppression (GFP-seq) (ratio to wild type); higher = more function; SUP4oc tRNA, yeast GFP reporter sort-seq
Procedure, shortened: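 Sorted GFP/RFP bins of yeast were each Illumina-sequenced with a phred ≥30 cutoff; the cells held a genome-integrated ochre-suppressor tRNA variant from a library with ~3% random mutations, a galactose-driven GFP ochre reporter, and RFP. Culture was in raffinose/galactose medium containing 80 mg/L adenine. Nonsense suppression, termed GFPSEQ, is the median GFP/RFP of the bins weighted by each variant's estimated cell share per bin, relative to the unmutated parent tRNA, for variants reaching ≥100 reads and ≥30 cells.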

Point of comparison: CUCUCGGUAGCCAAGUUGGUUAAAGGCGCAAGACUUUAAUUUAUCACUACGAAACCUUGAGAUCGGGCGUUCGACUCGCCCCCGGGAGAUUUUUUCCUCGAGCAA [U22A U55C], nonsense suppression 0.377. Against it:
- CUCUCGGUAGCCAAGUUGGUUAAAGGCGCAAGACUUUAAUUUAUCACUACGAAAUCUGGAGAUCGGGCGUUCAACUCGGCGCCGGGAGAUUUUUUCCUCGAGCAA [U22A U58G G73A C79G C81G] — lower, ≤ 0.026
- CUCUCGGUAGCCAAGUUGGUUCAAGGCGCAGGACAUUAAUUUAUCACUACGAAAUCAUGAGAUCGGGCGUUCGACUAGCCCCCGGGAGAUUUUUUCCUCGAGCAA [U22C A31G U35A U57A C77A] — lower, ≤ 0.026
- CUCUCGGUAGCCAAGUUGGUUCAUGGCGCAAGACUUUAAUUUAUCACUACGAAAUGUUGGGAUCGGGCGUUCGACUCACCCCCGGGAGAUUUUUUCCUCGAGCAA [U22C A24U C56G A60G G78A] — lower, ≤ 0.026
- CUCUCGGUAGCCAAGUUGGUUAAAGGCGCAAGACUUUAAUUUAUCACUACGAAAUCUUGAGAUCAGGCGUUCGACUCGCCCCCGGGAGAUUUUUUCCUCGAGCAA [U22A G65A] — lower, 0.12
- CUCUCGGUAGCCAAGUUGGUUAAAGGCGCAAGACUUUAAUUUAUCACUACGAAAUCUUGAGAUCGGGCGUUCGAUUCGCCCCCGGGAGAUUUUUUCCUCGAGCAA [U22A C75U] — higher, 1.15
- CUCUCGGUAGCCAAGUUGGUUCACGGCGCAAGACUUUAAUUUAUCACUACGAAAUCUUGAGAUCGGGCGUUCGACUCGCCCCCGGGAGAUUUUUUCCUCGAGCAA [U22C A24C] — higher, 1.01
- CUCUCGGUAGCCAAGUUGGUUCAGUGCUCUAGUCUUUAAUUUAUCACUACGAAAUCUUGAGAUCGGGCGUUCGACUCGCCCCCGGGAGAUUUUUUCCUCGAGCAA [U22C A24G G25U G28U A30U A33U] — lower, ≤ 0.026
- CUCUCGGUAGCCAAGUUGGUUCAAGGCGCAAGACUUUAAUUUAUCACUACGAACUCUUGAGAUCGGGCGUUCGACUCGCCCCCGGGAGAUUUUUUCCUCGAGCAA [U22C A54C] — higher, 1.2
- CUCUCGGUAGCCAAGUUGGUUCAAGGCGCAAGACUUUAAUUUAUCACUACGAAUUCUUGAGAUCGGGCGUUCGACUCGCCCCCGGGAGAUUUUUUCCUCGAGCAA [U22C A54U] — higher, 1.05
- CUCUCGGUAGCCAAGUUGGUUCAAGGCGCACUACUUUAAUUUAUCACUACGAAAUCUUGAGAUCGGGCGUUCGACUCGGCCCCGGGAGAUUUUUUCCUCGAGCAA [U22C A31C G32U C79G] — lower, ≤ 0.026
- CUCUCGGUAGCCAAGUUGGUUAAAGGCGCAAGACUUUAAUUUAUCACUACGAAAUCCUGAGAUCGGUCGCUCGACUCGCCCCCGGGAGAUUUUUUCCUCGAGCAA [U22A U57C G67U U70C] — lower, ≤ 0.026
- CUCUCGGUAGCCAAGUUGGUUCAAGGCGCAUGACUUUAAUUUAUCACUACGAAAUCUUGAGAUCGGGCGUUCGACUCGCGCCCGGUAGAUUUUUUCCUCGAGCAA [U22C A31U C80G G86U] — lower, ≤ 0.026
- CUCUCGGUAGCCAAGUUGGUUCAAGGCGCAGGACUUUAAUUUAUCACUACGAAAUCUUGAGAUCGGGCGUUCGCCUCGCCCCCGGGAGAUUUUUUCCUCGAGCAA [U22C A31G A74C] — lower, ≤ 0.026
- CUCUCGGUAGCCAAGUUGGUUAAAUGCGCAAGACUUUAAUUUAUCACUACGAAAUCUUGAGAUCGGGCGUUCGACUCGCCCCCGGGAGAUUUUUUCCUCGAGCAA [U22A G25U] — lower, 0.0283
- CUCUCGGUAGCCAAGUUGGUUCCAGGCGCAAGACUUUAAUUUAUCACUACGAAAUCUUGAGAUCGGGCGUUCGACUCGCCCCCGGAAGAUUUUUUCCUCGAGCAA [U22C A23C G86A] — lower, ≤ 0.026
- CUCUCGGUAGCCAAGUUGGUUCAAGGCGCAAGACUUUAAUUUAUCACUACGAACUCUUGAGAUCGGACGUUCGACACGCCCCCGGGAGAUUUUUUCCUCGAGCAA [U22C A54C G67A U76A] — lower, ≤ 0.026
- CUCUCGGUAGCCAAGUUGGUUAAAUGGGCAAUGCUUUAAUUUAUCACUACGAAAUCUUGAGAUCGGGCUUUCGACUCGCCCCCGGGAGAUUUUUUCCUCGAGCAA [U22A G25U C27G G32U A33G G69U] — lower, ≤ 0.026
- CUCUCGGUAGCCAAGUUGGUUAAAGGCGCAAGACUUUAAUUUAUCACUACGAAAUGUUGAGAUCAGGCACUCGACUCGCCCCCGGGAGAUUUUUUCCUCGAGCAA [U22A C56G G65A G69A U70C] — lower, ≤ 0.026
- CUCUCGGUAGCCAAGUUGGUUCAAGGCGCACGACUUUAAUUUAUCACUACGAAAUCUUGAGAUCGGGCGUUCGACUCGCCCCCGGGAGAUUUUUUCCUCGAGCAA [U22C A31C] — lower, ≤ 0.026
- CUCUCGGUAGCCAAGUUGGUUCGAGGCGCAAGACUUUAAUUUAUCACUACGAAAUCUUGAGAUCGGGCGUUCGACUCGCCCCCGGGAGAUUUUUUCCUCGAGCAA [U22C A23G] — lower, ≤ 0.026
- CUCUCGGUAGCCAAGUUGGUUAAAGGCGCAAGACUUUAAUUUAUCACUACGAAAUCUUGAGAUCGGGCGUUCGACUCGCCCCCGGGACAUUUUUUCCUCGAGCAA [U22A G88C] — lower, ≤ 0.026
- CUCUCGGUAGCCAAGUUGGUUCAUGGAGCAUGACUUUAAUUUAUCACUACGAAAUCUUGCGAUCGGGCGUUCGACUCGCCCCCGGGAGAUUUUUUCCUCGAGCAA [U22C A24U C27A A31U A60C] — lower, ≤ 0.026
- CUCUCGGUAGCCAAGUUGGUUAAAGGCGCAAGACUUUAAUUUAUCACUACGAAAUAUUGAGAUCGGGCGUUCGACUCGCCCCCGGGAGAUUUUUUCCUCGAGCAA [U22A C56A] — lower, ≤ 0.026
- CUCUCGGUAGCCAAGUUGGUUCAAGGCGCAAGACUUUAAUUUAUCACUACGAAAUCUUGAGCUCGGGCGUUCGACUCGCCCCCGGGAGAUUUUUUCCUCGAGCAA [U22C A62C] — lower, ≤ 0.026
- CUCUCGGUAGCCAAGUUGGUUAAAGGCGCAAGACUUUAAUUUAUCACUACGAAAUCUUGAGAUCGGGCGUUCGAAUCGCCCCCGGGAGCUUUUUUCCUCGAGCAA [U22A C75A A89C] — lower, ≤ 0.026
- CUCUCGGUAGCCAAGUUGGUUAAAGGCGCAAGACUUUAAUUUAUCACUACGAAAUCUUGAGAUCGGGCGUUCGACUGGUCCCCGGGAGAUUUUUUCCUCGAGCAA [U22A C77G C79U] — lower, ≤ 0.026

From the RNAGym collection of RNA variant scans (doi:10.1101/gad.245936.114)
